Test results reported in PMC4336329 (PLoS ONE, 2015).
The whole screen tested about 310,000 compounds, of which about 2,200 (0.71%) showed an effect of 50% or more. The effect is printed as a negative number. This is one part of the list.

Target: human ether-à-go-go-related gene (hERG) potassium channel (human, UniProt Q12809)
Assay: primary screen, population patch clamp on CHO cells stably expressing hERG

human ether-à-go-go-related gene (hERG) potassium channel, sequence (Q12809 whole entry, looked up): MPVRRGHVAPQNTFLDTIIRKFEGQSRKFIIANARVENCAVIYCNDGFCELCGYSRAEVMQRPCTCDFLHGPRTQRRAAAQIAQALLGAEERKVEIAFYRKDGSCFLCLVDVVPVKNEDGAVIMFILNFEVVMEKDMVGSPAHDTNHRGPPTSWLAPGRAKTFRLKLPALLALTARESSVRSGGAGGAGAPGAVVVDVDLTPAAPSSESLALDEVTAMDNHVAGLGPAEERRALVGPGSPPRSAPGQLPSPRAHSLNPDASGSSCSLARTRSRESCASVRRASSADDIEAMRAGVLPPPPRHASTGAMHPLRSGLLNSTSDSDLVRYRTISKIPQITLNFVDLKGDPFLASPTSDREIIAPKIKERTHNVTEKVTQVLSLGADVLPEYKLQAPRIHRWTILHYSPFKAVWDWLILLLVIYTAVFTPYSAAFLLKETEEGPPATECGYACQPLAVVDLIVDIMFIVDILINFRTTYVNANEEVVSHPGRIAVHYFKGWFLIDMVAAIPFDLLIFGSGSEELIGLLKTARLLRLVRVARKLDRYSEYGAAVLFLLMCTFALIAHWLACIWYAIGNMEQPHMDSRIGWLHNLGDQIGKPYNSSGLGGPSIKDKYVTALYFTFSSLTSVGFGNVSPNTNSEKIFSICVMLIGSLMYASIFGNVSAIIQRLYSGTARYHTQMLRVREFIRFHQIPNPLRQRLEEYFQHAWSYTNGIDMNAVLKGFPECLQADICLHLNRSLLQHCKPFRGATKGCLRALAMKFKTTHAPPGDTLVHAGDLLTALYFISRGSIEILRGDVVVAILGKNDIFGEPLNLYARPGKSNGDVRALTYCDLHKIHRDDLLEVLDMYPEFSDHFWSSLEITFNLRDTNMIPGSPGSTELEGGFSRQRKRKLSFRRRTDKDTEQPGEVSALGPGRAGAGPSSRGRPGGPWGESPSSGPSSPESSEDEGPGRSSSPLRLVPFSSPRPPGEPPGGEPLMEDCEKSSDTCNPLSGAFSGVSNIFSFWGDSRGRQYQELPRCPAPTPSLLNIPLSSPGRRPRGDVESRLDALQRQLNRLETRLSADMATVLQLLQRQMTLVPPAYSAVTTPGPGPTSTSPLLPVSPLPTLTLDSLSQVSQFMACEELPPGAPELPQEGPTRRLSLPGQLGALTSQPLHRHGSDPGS

Structure (SMILES) | hERG current change (%, negative = inhibition) at 1uM [%]
COc1cccc(CN2CC(C(=O)N(C)Cc3ccc(C)cc3)CCC2=O)c1 (stereo not shown) | 13.5
Clc1ccc(Cc2nc(-c3cccnc3)no2)cc1 | -3.87
COc1ccsc1C(=O)NCCN1CCOCC1 | -3.57
Cc1cccc(OCC(=O)Nc2ccc3c(c2)nc(CN2CCCCC2)n3C)c1.Cl | -3.37
CC(=O)c1ccc(NC(=O)C2CC(c3ccc(F)cc3)=NO2)cc1 (stereo not shown) | 6.2
CN1C(=O)C2(OCC(C)([N+](=O)[O-])CO2)c2ccccc21 (stereo not shown) | 12.5
C#CCNC(=O)C1=C[C@H](C2CCCCC2)[C@@H](CCCO)[C@H](OCC)O1 | 15.9
CC(=O)N1CCOc2ccc(S(=O)(=O)N3CCC(C(=O)NCc4ccc(C)cc4)CC3)cc21 | 15.7
CN(C)c1cc[n+](Cc2ccccc2)cc1.[Br-] | 2.05
COc1cc2nc(Nc3ccc(C)c(C)c3)nc(N)c2cc1OC | 4.31
Cc1c(NC(=O)COc2c(F)c(F)c(F)c(F)c2F)c(=O)n(-c2ccccc2)n1C | 11.6
Cc1snc(SCC(=O)N/N=C(\N)COc2ccc(F)cc2)c1C#N | 11.6
COc1ccccc1Cn1c(/C=C/c2ccccc2)nc2ccccc21 | 13.6
CCOC(=O)N1CCC(NC(=O)c2ccc(N3CCC4(CC3)OCCO4)c([N+](=O)[O-])c2)CC1 | 7.07
Cl.OC(CCCN1CCCCC1)(c1ccccc1)c1ccccc1 | -5.59
CCn1c(=S)sc2c(=O)n(CC(=O)Nc3ccccc3C(F)(F)F)c(C)nc21 | 5.14
O=C(CSc1nncs1)Nc1ccc(Cl)cn1 | 0.856
CCn1c(SCC(=O)N2CCCc3ccccc32)nc2c(c1=O)SC(C)C2 (stereo not shown) | 10.3
CC1C(=O)N2CCCc3cc(NC(=O)C(=O)NCc4cccnc4)cc1c32 (stereo not shown) | 13
COc1ccc(S(=O)(=O)N(C)CC(=O)NCc2cccnc2)cc1C | 8.52

Structure (SMILES) | hERG current change (%, negative = inhibition) at 1uM [%]
COc1ccc(CCN(C)C(=O)c2cc(S(=O)(=O)N3CCCCC3)ccc2Cl)cc1OC | 15.5
CC(C)NC(=O)c1ccccc1NC(=O)Cc1ccc(Br)cc1 | 13.4
CCC(C)(C)n1nnnc1C(c1ccc2ncccc2c1)N1CCN(c2nc3ccccc3s2)CC1 (stereo not shown) | 5.49
O=C(CN1C(=O)NC2(CCc3ccccc32)C1=O)c1ccccc1 (stereo not shown) | 10.6
Cl.c1ccc2c(c1)NCCS2 | 9.17
COc1c(O)cnn(-c2ccccc2)c1=O | 15.6
O=C(CSc1nn(-c2ccc(Cl)cc2)c(=S)s1)NCC1CCCO1 (stereo not shown) | 10.9
CC(C)c1nnc(NC(=O)c2cc3ccccc3o2)s1 | 10.5
COc1cc(CSc2ncn[nH]2)c(OC)cc1CSc1ncn[nH]1 | -0.272
Cc1cc(Cl)ccc1NC(=O)CSc1nnc(-c2ccncc2)n1Cc1ccco1 | -26.9
O=C(CS(=O)c1cccc(C(F)(F)F)c1)Nc1ccccc1Cl (stereo not shown) | 5.29
COc1ccc(/C=N/n2c(=S)n(C)c3ccccc32)cc1OC | 1.58
CC(C)=CCN1CCN(Cc2cc(C(C)C)n[nH]2)CC1CCO (stereo not shown) | 14.5
O=C(Nc1cc(-c2nc3ncccc3o2)ccc1Cl)c1ccco1 | 10.3
CCOc1ccc2nc(SCC(=O)Nc3cc(C)on3)c(C)cc2c1 | 11.6
O=C(N/N=C/c1c[nH]c2ccccc12)c1ccn[nH]1 | -1.43
Cc1nnc(Sc2c(N)n(C)c(=O)n(C)c2=O)s1 | 10.3
Cc1cc(C(=O)Nc2cccc(/C=C/C(=O)O)c2)c(C)o1 | -8.98
O=C(OCn1nnc2ccccc2c1=O)c1cc(-c2ccccc2Cl)nc2ccccc12 | 9.69
CC(C)CCCN1CCN=C1Nc1ccccc1 | 7.85

Structure (SMILES) | hERG current change (%, negative = inhibition) at 1uM [%]
Clc1cccc(Cl)c1CON/C=N/c1ncnc2sccc12 | -1.9
COc1ccc(C(=O)Nc2ccc(C)c(S(=O)(=O)N3CCCCCC3)c2)cc1 | 10.6
COc1ccc(-c2ccc3oc(-c4ccc(OC)cc4)c(-c4cc(OC)c(OC)c(OC)c4)c3c2)cc1 | 7.27
CC(C)(C)OC(=O)N1CCC(NC(=O)c2nc[nH]c2C(=O)N2CCN(C(=O)OC(C)(C)C)CC2)CC1 | 6.59
Cl.NCC(O)c1cc(O)c(O)cc1F (stereo not shown) | 5.92
Cn1c(SCC(=O)c2ccc3c(c2)Cc2ccccc2-3)nnc1-c1ccccc1 | 14.1
CC(=O)N1Cc2ccccc2CC1C(=O)O (stereo not shown) | 6.94
COc1ccc(Br)cc1S(=O)(=O)N1CCN=C1C | 5.76
COc1cc(C(=O)NCc2nnc(SCC(=O)NC3CCCC3)o2)cc(OC)c1OC | 12.2
Cc1occc1-c1nnc(SCC(=O)Nc2ccccc2)n1C | 11.8
COc1ccc(C(=O)Nc2nnc(SCC(=O)NC3CC3)s2)cc1 | 10.3
COc1ccc(C(=O)NC2(C(F)(F)F)NC(=O)N(CCCc3ccccc3)C2=O)cc1OC (stereo not shown) | 12.8
CSc1nsc(SCC(=O)N2CCCc3ccccc32)n1 | 8.05
COc1ccc(S(=O)(=O)N2CCCC2)c(Cl)c1Cl | 7.91
CCOC(=O)C/C(C)=N/NC(=O)Nc1ccccc1 | 11.9
O=C(Cn1cnc2ccccc2c1=O)c1ccccc1 | 8.89
O=C(Cc1cccc2ccccc12)N/N=C/c1ccc(Sc2cccc3cccnc23)o1 | 9.69
O=C(CSc1nnc(-c2ccco2)o1)N1CCCCC1 | 15.6
